Out of some 350,000 compounds screened, about 31,000 (8.9%) were called active. The inconclusive results got no clear call from the source; some entries with a clear call stand among them for comparison. Calls come from the whole dose curve; as a rule, active = well fitted inhibition curve with a large enough effect; inconclusive = small, poorly fitted or top-dose-only effect; inactive = no such curve, though single readings can be large or run the other way. Where the call is inconclusive, the potency comes from a doubtful curve fit.
target: Histone-lysine N-methyltransferase EHMT2 (Homo sapiens) (UniProt Q96KQ7); assay: qHTS Assay for Inhibitors of Histone Lysine Methyltransferase G9a; conditions: G9a H3K9 monomethylation, AlphaScreen, 2 h; activity, negative = inhibition: at 59 µM (top of the series) unless noted; note: nearly all actives have a fitted effect of over 75% in size
Sequence of UniProt Q96KQ7 (Q96KQ7 whole entry, looked up): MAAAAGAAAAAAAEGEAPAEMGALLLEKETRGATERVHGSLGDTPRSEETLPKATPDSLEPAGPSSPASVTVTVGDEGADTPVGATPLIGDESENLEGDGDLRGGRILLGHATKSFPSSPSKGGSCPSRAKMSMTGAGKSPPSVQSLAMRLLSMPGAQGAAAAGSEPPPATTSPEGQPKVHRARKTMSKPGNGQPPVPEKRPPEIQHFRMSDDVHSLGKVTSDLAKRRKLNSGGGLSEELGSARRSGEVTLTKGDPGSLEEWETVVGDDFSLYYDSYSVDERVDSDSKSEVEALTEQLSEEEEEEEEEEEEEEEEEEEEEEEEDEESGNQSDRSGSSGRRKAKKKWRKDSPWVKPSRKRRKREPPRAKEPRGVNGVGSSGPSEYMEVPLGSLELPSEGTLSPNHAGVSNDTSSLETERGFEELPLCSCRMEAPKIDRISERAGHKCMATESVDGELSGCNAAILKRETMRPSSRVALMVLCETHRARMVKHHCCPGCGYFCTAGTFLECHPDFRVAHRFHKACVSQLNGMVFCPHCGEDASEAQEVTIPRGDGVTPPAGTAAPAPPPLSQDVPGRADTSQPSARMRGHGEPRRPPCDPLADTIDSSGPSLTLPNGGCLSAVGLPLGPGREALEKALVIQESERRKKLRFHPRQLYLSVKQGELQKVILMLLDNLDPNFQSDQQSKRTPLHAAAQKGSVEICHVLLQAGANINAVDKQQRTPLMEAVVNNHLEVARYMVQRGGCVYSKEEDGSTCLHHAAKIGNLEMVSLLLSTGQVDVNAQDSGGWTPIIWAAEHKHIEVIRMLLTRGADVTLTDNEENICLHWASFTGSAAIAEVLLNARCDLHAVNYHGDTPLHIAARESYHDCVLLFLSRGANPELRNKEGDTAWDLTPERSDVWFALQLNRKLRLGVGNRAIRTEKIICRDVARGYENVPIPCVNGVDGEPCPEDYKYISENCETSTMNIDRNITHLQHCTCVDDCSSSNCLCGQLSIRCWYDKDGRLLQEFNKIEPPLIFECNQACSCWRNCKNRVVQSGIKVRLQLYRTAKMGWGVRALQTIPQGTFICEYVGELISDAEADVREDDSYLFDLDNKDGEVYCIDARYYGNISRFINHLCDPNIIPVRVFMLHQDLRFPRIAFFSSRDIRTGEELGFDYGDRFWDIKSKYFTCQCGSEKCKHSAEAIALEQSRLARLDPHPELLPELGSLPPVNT
Outline: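 Chemiluminescent proximity detection of H3K9 monomethylation, read after 10 min bead incubation in the dark. Reaction: 20 nM G9a, 500 nM biotin-H3K9 peptide, 20 uM SAM cofactor, 2 h, room temperature, following 15 min enzyme-compound preincubation.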
% is set by controls: 0 for no effect and ±100 for the full control effect; potency is the fitted concentration of half-maximal effect; tags give direction and shape of the fitted curve.

Compound | Potency | activity, negative = inhibition
COc1ccc(-c2nc3ccc(C)cn3c2Nc2ccc3c(c2)OCO3)cc1 | inconclusive: 10 µM [inhibitor, partial curve] | –
CCOc1ccc(C(=O)Nc2nnc(SCC(=O)NCC3CCCO3)s2)cc1OCC (stereo not drawn) | inconclusive: 35.5 µM [inhibitor, partial curve, poor fit] | –
COc1ccc2cc3c(N)nn(C(=O)c4ccc(Cl)c([N+](=O)[O-])c4)c3nc2c1 | inconclusive: 89.1 µM [inhibitor, single point] | –
Cc1ccccc1CN1CCN(C(=O)c2cccc(F)c2)CC1 | inconclusive: 2.82 µM [inhibitor, partial curve, poor fit] | –
CC(=O)Nc1nc(-c2cc([N+](=O)[O-])cs2)cs1 | inconclusive: 50.1 µM [inhibitor, partial curve, poor fit] | –
CC(C)c1ccc(NC(=S)NNc2ccc(Cl)c(C(=O)O)c2)cc1 | active: 10 µM | –
CCn1cc(C(=O)NCCCOC)c(=O)c2cc(S(=O)(=O)N(C)C3CCCCC3)ccc21 | inconclusive: 79.4 µM [inhibitor, single point] | –
Cc1ccc(NC(=S)N/N=C/c2ccc([N+](=O)[O-])s2)cc1 | active: 39.8 µM | –
Cn1c(C(=O)N2CCc3ccccc3C2)cc2oc3ccccc3c21 | inconclusive: 31.6 µM [inhibitor, single point] | –
CCOc1ccccc1-n1c(SCC(N)=O)nnc1-c1cccnc1 | inconclusive: 12.6 µM [inhibitor, partial curve, poor fit] | –
COc1ccc(N2CCN(CCCNC(=O)c3cc(Nc4ccccc4OC)nc4ccccc34)CC2)cc1 | active: 10 µM | –
C#CCOCCOCCOCCNc1nc(N2CCN(C(=O)C([C@@H](C)CC)n3cc(C(N)Cc4ccc(O)cc4)nn3)CC2)nc(N2CCN(C(=O)[C@H](CCC(=O)O)n3cc(C(N)CO)nn3)CC2)n1 (stereo partly drawn) | – | inconclusive: -101% [inhibitor]
COCCn1nnnc1C(c1cccs1)N1CCN(c2cc(C)ccc2C)CC1 (stereo not drawn) | – | inactive: -43.9% [at 12.7 µM]
O=C(O)C1CCN(C(=O)CSc2nc3ccccc3c(=O)n2-c2ccc(Cl)cc2)CC1 | – | inactive: 4.35% [at 102 µM]
Oc1ccc(-c2c(C3=CCCCC3)sc3ccccc23)cc1 | inconclusive: 89.1 µM [inhibitor, single point] | –
CCCN1CCC(N(C)CCc2ccc(OC)c(OC)c2)CC1 | inconclusive: 39.8 µM [inhibitor, single point] | –
O=C(Cn1c(O)c(N=NC(=O)c2ccncc2)c2ccccc21)Nc1ccccc1 | – | inactive: -1.81%
O=[N+]([O-])c1ccc(N2CCCC2)cc1NC1CC1 | inconclusive: 8.91 µM [inhibitor, partial curve] | –
Cc1ccc(-n2c(C)nc3ncnc(-c4ccccc4)c32)cc1 | – | inactive: 9.07%
Cc1ccc(-c2nc(CS(=O)(=O)CC(=O)NCc3ccccc3Cl)c(C)o2)cc1 | – | inactive: -6.32%
COc1ccc(OC)c(C2C3=C(N=c4s/c(=C\c5cccc(O)c5)c(=O)n42)c2ccccc2CC3)c1 (stereo not drawn) | inconclusive: 25.1 µM [inhibitor, single point] | –
CN1c2ccccc2N(C)C1(C)c1ccccc1 | inconclusive: 1.58 µM [inhibitor, full curve, poor fit] | –
COc1cc(NC(=O)c2cc(=O)[nH]c3ccc(S(=O)(=O)N4CCOCC4)cc23)cc(OC)c1 | inconclusive: 35.5 µM [inhibitor, partial curve, poor fit] | –

Compound | Potency | activity, negative = inhibition
CCOC(=O)c1c(NC(=O)c2ccccc2)sc2c1CCc1ccccc1-2 | inconclusive: 3.98 µM [inhibitor, full curve, poor fit] | –
CCOc1ccc(S(=O)(=O)N/N=C2/CCCC(=O)C2)cc1 | active: 10 µM | –
COc1ccc(N2CC(NC(=O)COc3ccc4ccccc4c3)CC2=O)cc1 (stereo not drawn) | – | inactive: -3.46%
COc1ccc(-n2c(CCc3ccccc3)nnc2SCC(=O)c2ccc(Cl)cc2)cc1 | inconclusive: 25.1 µM [inhibitor, single point] | –
COc1cc(C(=S)N2CCOCC2)cc(OC)c1OC | active: 39.8 µM | –
CCc1ccc(C2CC(c3cccc(Cl)c3)n3nc(N)nc3N2)cc1 (stereo not drawn) | – | inactive: 2.13% [at 102 µM]
CC(C)CC(=O)NC(NC(=S)Nc1cccc2cccnc12)C(Cl)(Cl)Cl (stereo not drawn) | inconclusive: 15.8 µM [inhibitor, partial curve, poor fit] | –
CC1(C(=O)N2CC3(CC(c4cccc(NC(=O)COc5ccc(Cl)cc5)c4)=NO3)C[C@@H]2C(N)=O)CC1 (stereo partly drawn) | inconclusive: 8.91 µM [inhibitor, single point] | –
Cc1ccc(C)c(N2N=C(C(=O)NCCN3C(=O)S/C(=C\c4cccnc4)C3=O)CCC2=O)c1 | inconclusive: 56.2 µM [inhibitor, partial curve] | –
COc1ccc(C2NC(=O)N(C)C(C)=C2[N+](=O)[O-])cc1 (stereo not drawn) | – | inactive: -2.62% [at 102 µM]
Cn1cnnc1SCC(=O)Nc1nc(-c2ccccc2)cs1 | – | inactive: -18.4% [at 102 µM]
Cc1ccc(C2=Nc3ccccc3NC(C)(c3ccc(C)o3)C2)o1 (stereo not drawn) | – | inconclusive: -85.4% [inhibitor]
O=C(Nc1nnc(Cc2ccccc2)s1)C1CCC1 | – | inactive: 5.53% [at 102 µM]
Cc1cccc(NC(=O)c2sc(-n3nc(C)c(CCC(C)C)c3C)nc2C)c1C | – | inactive: -2.02%
CC1(c2ccccc2)CC(C)(C)N(C(=O)c2cc([N+](=O)[O-])cc([N+](=O)[O-])c2)c2ccccc21 (stereo not drawn) | inconclusive: 14.1 µM [inhibitor, partial curve, poor fit] | –
COc1ccccc1NC(=O)c1ccc(NC(=O)COC(=O)C2CC2C)cc1 (stereo not drawn) | inconclusive: 70.8 µM [inhibitor, single point] | –
CCSCCOC(=O)C1=C(C)NC(=O)NC1c1ccc2c(c1)OCO2 (stereo not drawn) | inconclusive: 89.1 µM [inhibitor, single point] | –
O=C(O)CCC(=O)NNC(=O)c1cccc(Cl)c1 | inconclusive: 1.26 µM [inhibitor, full curve] | –
COc1ccccc1NC(=O)N(Cc1ccco1)Cc1cc2ccc(C)c(C)c2[nH]c1=O | inconclusive: 31.6 µM [inhibitor, single point] | –
O=S(=O)(c1ccc2[nH]c3c(c2c1)CCCCC3)N1CCN(c2cccc(Cl)c2)CC1 | – | inactive: -34.1%
O=C(CSCc1nc2ccccc2[nH]1)Nc1ccc2ccccc2c1 | inconclusive: 0.1 µM [inhibitor, full curve, poor fit] | –
CC1CCc2nc(NC(=O)C3CCCO3)sc2C1 (stereo not drawn) | – | inconclusive: -93.8% [inhibitor]
COC(=O)c1ccc(C23CC4(C2)[C@H](CN(Cc2cccnc2)[C@@H]4c2ccccc2)C3c2ccccc2)cc1 (stereo partly drawn) | inconclusive: 31.6 µM [inhibitor, single point] | –

Compound | Potency | activity, negative = inhibition
Oc1ccccc1C1N=C(c2ccccc2)NC(c2ccccc2)=N1 | inconclusive: 39.8 µM [inhibitor, single point] | –
O=C(Nc1ccc(N2CCOCC2)nc1)c1ccc(F)cc1 | inconclusive: 89.1 µM [inhibitor, partial curve, poor fit] | –
Cc1cccnc1Nc1nc(-c2ccc(O)cc2)cs1 | inconclusive: 6.31 µM [inhibitor, single point] | –
CC(=O)CC1OC(=O)C(Br)=C1NCc1ccccc1 (stereo not drawn) | active: 35.5 µM | –
CCN1C(=O)[C@@H]2[C@@H](c3ccc(-c4ccc(F)cc4)cc3)N3CCC[C@@]3(C(=O)OC)[C@@H]2C1=O | – | inconclusive: -57.1% [inhibitor] [at 2.33 µM]
CCOc1ccccc1NC(=O)CN1CCCN(Cc2cccc(Cl)c2)S1(=O)=O | – | inactive: 5.41%
COc1ccc2c(c1OC)C(=O)N1C2SC[C@H]1C(=O)NC1CCCC1 (stereo partly drawn) | inconclusive: 79.4 µM [inhibitor, single point] | –
CCOC(=O)C(C)Sc1nc2c(c(=O)[nH]c(=O)n2C)n1Cc1ccc(Cl)cc1 (stereo not drawn) | active: 11.2 µM | –
Cc1c(NC(=O)/C(C#N)=C/c2ccccc2)c(=O)n(-c2ccccc2)n1C | active: 70.8 µM | –
CC(C)C(=O)Nc1cc(S(=O)(=O)Nc2cccc(Cl)c2)ccc1Cl | inconclusive: 89.1 µM [inhibitor, single point] | –
O=C(O)C(c1ccccc1)N1CCCC1 (stereo not drawn) | inconclusive: 31.6 µM [inhibitor, single point] | –
COC(=O)c1cccc(NC(=O)CSc2nc(=O)cc(N)n2-c2ccccc2)c1 | inconclusive: 89.1 µM [inhibitor, single point] | –
Cc1cccc(C(=O)NNC(=O)C2CC2)c1 | – | inactive: 19% [at 102 µM]
CCn1c(CN2CCOCC2)nc2cc(NC(=O)c3ccc([N+](=O)[O-])cc3)ccc21 | – | inactive: -19.3%
CCOC(=O)c1c(NC(=O)Cc2cccs2)sc(C(=O)NC2CCCC2)c1C | – | inactive: 10.7%
Cc1cccc(Cc2nnc(NC(=O)c3cccc(S(=O)(=O)N4CCOCC4)c3)s2)c1 | inconclusive: 1.41 µM [inhibitor, full curve, poor fit] | –
CC(C)Cc1nnc(NC(=O)CN2C(=O)NC3(CC(C)CC(C)(C)C3)C2=O)s1 (stereo not drawn) | active: 44.7 µM | –
COc1cc(NC(=O)Nc2cccc(C(C)=O)c2)cc(OC)c1OC | inconclusive: 50.1 µM [inhibitor, partial curve] | –
c1cc2c(cc1C1CCCCC1)c1c3n2CCN=C3CCC1 | inconclusive: 39.8 µM [inhibitor, single point] | –
CC1=Nn2c(nnc2-c2ccccc2Cl)SC1 | active: 22.4 µM | –
CCc1ccc(NC(=O)C2=CC(c3ccc4c(c3)OCO4)=NS(=O)(=O)N2C)cc1 | inconclusive: 22.4 µM [inhibitor, partial curve, poor fit] | –
COc1ccc(NC(=O)Nc2c[nH]c(=O)[nH]c2=O)c(OC)c1 | – | inactive: 4.19%
